The structures appear in SMILES notation. “And” between values parts separate entries of the source, which are not always exact repeats. Identical values can stand only once. In all, about 2,900 compounds were measured (“NF-kB SEAP reporter activity, fold change vs agonist alone”: median about 0.99, highest 2% from about 2.6 on). The list shows a part of the results.

For test [1], the system named is RAW-Dual. Briefly: NF-kB SEAP reporter activity, fold change vs agonist alone; cytotoxicity flag (confluency mask): not cytotoxic; higher = enhanced NF-kB activity. Summed up: (§1)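 RAW-Dual macrophages were seeded in DMEM at 50,000 cells/well in 384-well plates, given 50 nL of library stock by pin tool, and given a PRR agonist 1 h later. Plates were held at 37 °C, 5% CO2 for 20 hours, after which supernatant was read for IRF by QuantiLuc luminescence and for NF-κB by QuantiBlue absorbance at 620 nm. Reporter activity is expressed as fold change over wells that received agonist alone. A well was called cytotoxic when IncuCyte confluency fell below 70% of agonist controls in both mask sets.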

For test [2], the system named is RAW-Dual. Briefly: NF-kB SEAP reporter activity, fold change vs agonist alone; higher = enhanced NF-kB activity. The method, boiled down: as §1
Test [3] has as its system RAW-Dual. Kind of test: NF-kB SEAP reporter activity, fold change vs agonist alone; cytotoxicity flag (confluency mask): cytotoxic (confluency <70% of control); higher = enhanced NF-kB activity. Summed up: as §1
The mark [4] stands for this setting: agonist: ODN 1826 (TLR9) 0.5 ug/mL.
Setting [5] is: agonist: Pam2CSK4 (TLR2/6) 0.1 ug/mL.
The mark [6] stands for this setting: agonist: Pam3CSK4 (TLR2/1) 0.1 ug/mL.
Where [7] appears, read: library stock concentration (final ~1000-fold dilution): 10 mM, cytotoxicity flag (confluency mask): not cytotoxic, agonist: Imiquimod (TLR7) […].
The mark [8] stands for this setting: library stock concentration (final ~1000-fold dilution): 10 mM, cytotoxicity flag (confluency mask): not cytotoxic, agonist: MPLA (TLR4) […].
Setting [9] is: library stock concentration (final ~1000-fold dilution): 10 mM, cytotoxicity flag (confluency mask): cytotoxic (confluency <70% of control), agonist: Imiquimod (TLR7) […].
[10] abbreviates: library stock concentration (final ~1000-fold dilution): 10 mM, cytotoxicity flag (confluency mask): cytotoxic (confluency <70% of control), agonist: MPLA (TLR4) […].

As to `CCc1cncnc1N1CCN(Cc2nc3cc(C(F)(F)F)ccc3[nH]2)CC1` (library stock concentration (final ~1000-fold dilution): 10 mM), the “NF-kB SEAP reporter activity” value in the test with RAW-Dual [1] (agonist: LPS (TLR4) 0.1 ug/mL) is 0.934; in the test with RAW-Dual [1] (setting [4]), 1.18; in the test with RAW-Dual [1] (setting [5]), 1.13; in the test with RAW-Dual [1] (setting [6]) it was 1.69.

In the case of `COc1ccc(-n2c(C)c([N+](=O)[O-])c3ccc(O)cc32)cc1`, the “NF-kB SEAP reporter activity” value in the test with RAW-Dual [2] (setting [7]) was 1.19; in the test with RAW-Dual [2] (setting [8]) it was 2.08.

On to `COc1ccc(-n2c(C)c([N+](=O)[O-])c3ccc(O)cc32)cc1` (library stock concentration (final ~1000-fold dilution): 10 mM), for which the “NF-kB SEAP reporter activity” value was 1.9 in the test with RAW-Dual [1] (agonist: LPS (TLR4) 0.1 ug/mL), 0.559 in the test on RAW-Dual [1] (setting [4]), 1.07 in the test with RAW-Dual [1] (setting [5]) and 2.14 in the test with RAW-Dual [1] (setting [6]).

Regarding `O=S(=O)(c1ccccc1)c1cnc2c(N3CCNCC3)cccc2c1`, the “NF-kB SEAP reporter activity” value in the test on RAW-Dual [2] (setting [7]) is 1.02; in the test with RAW-Dual [2] (setting [8]), 0.963.

On to `O=S(=O)(c1ccccc1)c1cnc2c(N3CCNCC3)cccc2c1` (library stock concentration (final ~1000-fold dilution): 10 mM), for which the “NF-kB SEAP reporter activity” value in the test on RAW-Dual [1] (agonist: LPS (TLR4) 0.1 ug/mL) came out at 0.796; with RAW-Dual [1] (setting [4]) it was 0.35; in the test on RAW-Dual [1] (setting [5]), 0.984; in the test on RAW-Dual [1] (setting [6]) it was 1.1.

For the compound `NC(=O)N1CCC(CC(=O)N2CCC(C3c4ncc(Br)cc4CCc4cc(Cl)cc(Br)c43)CC2)CC1` (stereo not given), the figures for the “NF-kB SEAP reporter activity” value with RAW-Dual [2] (setting [9]) and with RAW-Dual [2] (setting [10]) were 0.614 and 0.603, respectively.

As to `NC(=O)N1CCC(CC(=O)N2CCC(C3c4ncc(Br)cc4CCc4cc(Cl)cc(Br)c43)CC2)CC1` (stereo not given) (library stock concentration (final ~1000-fold dilution): 10 mM), the “NF-kB SEAP reporter activity” value amounted to 0.422 with RAW-Dual [3] (agonist: LPS (TLR4) 0.1 ug/mL), 0.347 in the test with RAW-Dual [3] (setting [4]), 0.171 in the test with RAW-Dual [3] (setting [5]) and 0.223 in the test with RAW-Dual [3] (setting [6]).

Consider `CCOc1cc(C(C)(C)C)ccc1C1=NC(C)(c2ccc(Cl)cc2)C(C)(c2ccc(Cl)cc2)N1C(=O)N1CCN(CCCS(C)(=O)=O)CC1` (stereo not given), for which the “NF-kB SEAP reporter activity” value in the test on RAW-Dual [2] (setting [9]) was 1.13; in the test with RAW-Dual [2] (setting [10]) it was 0.79.

As to `CCOc1cc(C(C)(C)C)ccc1C1=NC(C)(c2ccc(Cl)cc2)C(C)(c2ccc(Cl)cc2)N1C(=O)N1CCN(CCCS(C)(=O)=O)CC1` (stereo not given) (library stock concentration (final ~1000-fold dilution): 10 mM), the “NF-kB SEAP reporter activity” value in the test on RAW-Dual [3] (agonist: LPS (TLR4) 0.1 ug/mL) was 0.487; in the test with RAW-Dual [3] (setting [4]), 0.354; with RAW-Dual [3] (setting [5]), 0.161; in the test on RAW-Dual [3] (setting [6]), 0.179.

Take `CCCC(=O)Nc1ccc(OCC(O)CNC(C)C)c(C(C)=O)c1.Cl` (stereo not given): the “NF-kB SEAP reporter activity” value came out at 1 with RAW-Dual [2] (setting [7]) and 1.08 in the test with RAW-Dual [2] (setting [8]).

As for `CCCC(=O)Nc1ccc(OCC(O)CNC(C)C)c(C(C)=O)c1.Cl` (stereo not given) (library stock concentration (final ~1000-fold dilution): 10 mM), the “NF-kB SEAP reporter activity” value with RAW-Dual [1] (agonist: LPS (TLR4) 0.1 ug/mL) is 1.54; in the test with RAW-Dual [1] (setting [4]), 1.08; in the test on RAW-Dual [1] (setting [5]) it was 1.11; with RAW-Dual [1] (setting [6]) it was 1.16.

Consider `CCCCS(=O)c1sc2nc(-c3cccs3)cc(-c3ccccc3)c2c1N` (stereo not given) (library stock concentration (final ~1000-fold dilution): 10 mM), for which the “NF-kB SEAP reporter activity” value in the test with RAW-Dual [1] (agonist: LPS (TLR4) 0.1 ug/mL) was 1.55; in the test on RAW-Dual [1] (setting [4]) it was 0.779; with RAW-Dual [1] (setting [5]) it was 0.91; in the test on RAW-Dual [1] (setting [6]), 0.544.

As to `CCCCS(=O)c1sc2nc(-c3cccs3)cc(-c3ccccc3)c2c1N` (stereo not given), the “NF-kB SEAP reporter activity” value amounted to 0.589 in the test on RAW-Dual [2] (setting [7]) and 1.42 in the test with RAW-Dual [2] (setting [8]).

Consider `Nc1nc2[nH]cc(CCc3ccc(C(=O)NC(CCC(=O)O)C(=O)O)cc3)c2c(=O)[nH]1` (stereo not given) (library stock concentration (final ~1000-fold dilution): 10 mM water), for which the “NF-kB SEAP reporter activity” value was 1.51 and 1.2 with RAW-Dual [1] (agonist: LPS (TLR4) 0.1 ug/mL); 1.67 and 1.49 with RAW-Dual [1] (setting [4]); 1.45 and 1.39 in the test with RAW-Dual [1] (setting [5]); 1.52 and 1.31 in the test with RAW-Dual [1] (setting [6]).

Take `CC1(c2nc3c(C(N)=O)cccc3[nH]2)CCCN1` (stereo not given): the “NF-kB SEAP reporter activity” value was 1.05 in the test with RAW-Dual [2] (setting [7]) and 0.99 with RAW-Dual [2] (setting [8]).

Take `CC1(c2nc3c(C(N)=O)cccc3[nH]2)CCCN1` (stereo not given) (library stock concentration (final ~1000-fold dilution): 10 mM): the “NF-kB SEAP reporter activity” value in the test on RAW-Dual [1] (agonist: LPS (TLR4) 0.1 ug/mL) is 1.14; in the test with RAW-Dual [1] (setting [4]), 0.972; with RAW-Dual [1] (setting [5]), 0.955; with RAW-Dual [1] (setting [6]), 0.991.

As to `COc1ccc(CCC(=O)N(c2nccc3ccccc23)C2CCCNC2)cc1` (stereo not given), the “NF-kB SEAP reporter activity” value with RAW-Dual [2] (setting [7]) worked out at 1.07; with RAW-Dual [2] (setting [8]) it was 1.29.

In the case of `COc1ccc(CCC(=O)N(c2nccc3ccccc23)C2CCCNC2)cc1` (stereo not given) (library stock concentration (final ~1000-fold dilution): 10 mM), the “NF-kB SEAP reporter activity” value with RAW-Dual [1] (agonist: LPS (TLR4) 0.1 ug/mL) amounted to 1.05; in the test with RAW-Dual [1] (setting [4]), 0.84; in the test with RAW-Dual [1] (setting [5]) it was 1.09; in the test with RAW-Dual [1] (setting [6]) it was 1.08.

In the case of `CC(C)CN(CC(O)C(Cc1ccccc1)NC(=O)OC1COC2OCCC12)S(=O)(=O)c1ccc(N)cc1.CCO` (stereo not given) (library stock concentration (final ~1000-fold dilution): 10 mM), the “NF-kB SEAP reporter activity” value amounted to 1.78 with RAW-Dual [1] (agonist: LPS (TLR4) 0.1 ug/mL), 1.57 in the test on RAW-Dual [1] (setting [4]), 1.42 with RAW-Dual [1] (setting [5]) and 1.43 in the test with RAW-Dual [1] (setting [6]).

Regarding `CC(C)CN(CC(O)C(Cc1ccccc1)NC(=O)OC1COC2OCCC12)S(=O)(=O)c1ccc(N)cc1.CCO` (stereo not given), the “NF-kB SEAP reporter activity” value is 1.42 with RAW-Dual [2] (setting [7]) and 1.49 in the test on RAW-Dual [2] (setting [8]).

With `O=c1cc(N2CCOCC2)oc2c(-c3cccc4c3sc3ccccc34)cccc12` (library stock concentration (final ~1000-fold dilution): 2 mM), the “NF-kB SEAP reporter activity” value in the test with RAW-Dual [1] (agonist: LPS (TLR4) 0.1 ug/mL) was 5.39.

As for `CCCCc1nc(-c2ccc(OCCCN(CC)CC)cc2)cn1-c1ccc(Oc2ccc(Cl)cc2)cc1`, the “NF-kB SEAP reporter activity” value was determined as 1.53 in the test on RAW-Dual [2] (setting [9]) and 1.02 in the test on RAW-Dual [2] (setting [10]).

In the case of `CCCCc1nc(-c2ccc(OCCCN(CC)CC)cc2)cn1-c1ccc(Oc2ccc(Cl)cc2)cc1` (library stock concentration (final ~1000-fold dilution): 10 mM), the “NF-kB SEAP reporter activity” value with RAW-Dual [3] (agonist: LPS (TLR4) 0.1 ug/mL) is 0.281; with RAW-Dual [3] (setting [4]) it was 0.683; in the test with RAW-Dual [3] (setting [5]), 0.225; with RAW-Dual [3] (setting [6]), 0.192.

Turning to `CCC(C)n1cc(C)c2c(C(=O)NCc3c(C)cc(C)[nH]c3=O)cc(-c3ccc(N4CCNCC4)nc3)cc21` (stereo not given) (library stock concentration (final ~1000-fold dilution): 2 mM), the “NF-kB SEAP reporter activity” value came out at 1.17 in the test on RAW-Dual [1] (agonist: LPS (TLR4) 0.1 ug/mL), 0.973 in the test with RAW-Dual [1] (setting [4]), 0.979 with RAW-Dual [1] (setting [5]) and 1.07 in the test on RAW-Dual [1] (setting [6]).

Consider `CCC(C)n1cc(C)c2c(C(=O)NCc3c(C)cc(C)[nH]c3=O)cc(-c3ccc(N4CCNCC4)nc3)cc21` (stereo not given), for which the “NF-kB SEAP reporter activity” value in the test on RAW-Dual [2] (library stock concentration (final ~1000-fold dilution): 2 mM, cytotoxicity flag (confluency mask): not cytotoxic, agonist: Imiquimod (TLR7) […]) is 0.954; with RAW-Dual [2] (library stock concentration (final ~1000-fold dilution): 2 mM, cytotoxicity flag (confluency mask): not cytotoxic, agonist: MPLA (TLR4) […]), 0.941.

For the origin of these results see the supplement of paper PMC10037445.
